# The IC50 comes from the fitted curve, where viability falls to half of the control; where the fit passes the top or lowest dose, that dose stands as a limit. AUC sums up the same curve from the lowest dose to the 256-fold higher top dose: 1 means no effect, lower means more sensitive. The top dose, if marked as inferred, is not printed in the source and was worked back from the curve model.
# Compound: C=CC(=O)Nc1cccc(Nc2nc(NC3CCC(N(C)C)CC3)nc3c2ncn3C(C)C)c1 [WZ3105]
# Assay: Viability of human cancer cell lines after 72 h of drug (GDSC screen)
# Settings: top dose inferred
# Procedure: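 Human cancer cell lines in 384-well plates, medium with 10% serum, drug for 72 h over a 256-fold dose range (nine 2-fold or five 4-fold steps up to the top dose). Adherent lines were fixed and stained with the nucleic acid dye Syto60, suspension lines read with resazurin; signal relative to control wells, capped at 0 and 100%. One two-parameter sigmoid per drug and line, fitted in a mixed model over all curves with the slope shared within a line.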
Cell Line,AUC,IC50 [nM]
"Calu-3 (lung adenocarcinoma, adherent, top dose 1.28 µM)",0.971,> 1280
"Calu-6 (lung adenocarcinoma, adherent, top dose 10.24 µM)",0.725,3090
"Caov-3 (ovary, adherent, top dose 1.28 µM)",0.866,918
"Caov-4 (ovary, adherent, top dose 1.28 µM)",0.858,> 1280
"Capan-2 (pancreas, adherent, top dose 1.28 µM)",0.845,1240
"ChaGo-K-1 (non-small cell lung carcinoma, adherent, top dose 1.28 µM)",0.77,565
"D-247MG (glioma, adherent, top dose 1.28 µM)",0.968,> 1280
"D-263MG (glioma, adherent, top dose 1.28 µM)",0.903,> 1280
"D-283MED (medulloblastoma, adherent, top dose 1.28 µM)",0.986,> 1280
"D-336MG (glioma, adherent, top dose 1.28 µM)",0.667,267
"D-392MG (glioma, adherent, top dose 1.28 µM)",0.732,476
"D-423MG (glioma, adherent, top dose 1.28 µM)",0.838,1150
"D-502MG (glioma, adherent, top dose 1.28 µM)",0.921,> 1280
"D-542MG (glioma, adherent, top dose 1.28 µM)",0.984,> 1280
"D-566MG (glioma, adherent, top dose 1.28 µM)",0.779,514
"DAN-G (pancreas, adherent, top dose 1.28 µM)",0.916,> 1280
"DB (B-cell lymphoma, suspension, top dose 1.28 µM)",0.618,177
"DBTRG-05MG (glioma, adherent, top dose 1.28 µM)",0.915,> 1280
"DEL (lymphoid neoplasm, suspension, top dose 1.28 µM)",0.664,204
"DG-75 (Burkitt lymphoma, suspension, top dose 1.28 µM)",0.732,370
"DJM-1 (skin, adherent, top dose 1.28 µM)",0.845,912
"DK-MG (glioma, adherent, top dose 1.28 µM)",0.664,287
"DMS-53 (small cell lung carcinoma, adherent, top dose 1.28 µM)",0.987,> 1280
"DMS-79 (small cell lung carcinoma, suspension, top dose 1.28 µM)",0.701,326
"DMS-114 (small cell lung carcinoma, adherent, top dose 1.28 µM)",0.715,359
"DMS-273 (small cell lung carcinoma, adherent, top dose 1.28 µM)",0.683,269
"DND-41 (T-cell leukaemia, suspension, top dose 1.28 µM)",0.745,362

Cell Line,AUC,IC50 [nM]
"DOK (head and neck, adherent, top dose 1.28 µM)",0.958,> 1280
"DOV13 (ovary, adherent, top dose 1.28 µM)",0.981,> 1280
"DSH1 (bladder, adherent, top dose 1.28 µM)",0.697,278
"DU-145 (prostate, adherent, top dose 1.28 µM)",0.947,> 1280
"DU-4475 (breast, suspension, top dose 1.28 µM)",0.762,381
"Daoy (medulloblastoma, adherent, top dose 1.28 µM)",0.855,877
"Daudi (Burkitt lymphoma, suspension, top dose 1.28 µM)",0.678,234
"Detroit562 (head and neck, adherent, top dose 1.28 µM)",0.974,> 1280
"DoTc2-4510 (cervix, adherent, top dose 1.28 µM)",0.894,> 1280
"EB2 (Burkitt lymphoma, suspension, top dose 1.28 µM)",0.477,69.8
"EB-3 (Burkitt lymphoma, suspension, top dose 1.28 µM)",0.571,129
"EBC-1 (lung squamous cell carcinoma, adherent, top dose 1.28 µM)",0.793,672
"EC-GI-10 (oesophagus, adherent, top dose 1.28 µM)",0.946,> 1280
"ECC10 (stomach, suspension, top dose 1.28 µM)",0.642,202
"EFM-19 (breast, adherent, top dose 1.28 µM)",0.737,554
"EFM-192A (breast, adherent, top dose 1.28 µM)",0.981,> 1280
"EFO-21 (ovary, adherent, top dose 1.28 µM)",0.784,814
"EFO-27 (ovary, adherent, top dose 1.28 µM)",0.77,610
"EGI-1 (biliary tract, adherent, top dose 1.28 µM)",0.901,> 1280
"EJM (lymphoid neoplasm, semi-adherent, top dose 1.28 µM)",0.565,117
"EKVX (lung adenocarcinoma, adherent, top dose 10.24 µM)",0.756,8680
"EM-2 (chronic myeloid leukaemia, suspension, top dose 1.28 µM)",0.606,163
"EMC-BAC-1 (lung adenocarcinoma, adherent, top dose 1.28 µM)",0.74,434
"EMC-BAC-2 (lung adenocarcinoma, adherent, top dose 1.28 µM)",0.736,434
"EN (endometrium, adherent, top dose 1.28 µM)",0.742,486
"EPLC-272H (lung squamous cell carcinoma, adherent, top dose 1.28 µM)",0.515,88.5
"ES1 (Ewing sarcoma, adherent, top dose 1.28 µM)",0.566,121

Cell Line,AUC,IC50 [nM]
"ES3 (Ewing sarcoma, adherent, top dose 1.28 µM)",0.534,99.7
"ES4 (Ewing sarcoma, adherent, top dose 1.28 µM)",0.66,239
"ES5 (Ewing sarcoma, adherent, top dose 1.28 µM)",0.586,143
"ES6 (Ewing sarcoma, adherent, top dose 1.28 µM)",0.784,682
"ES7 (Ewing sarcoma, adherent, top dose 1.28 µM)",0.484,72.1
"ES8 (Ewing sarcoma, adherent, top dose 1.28 µM)",0.426,51.2
"ES-2 (ovary, adherent, top dose 1.28 µM)",0.917,> 1280
"ESO26 (oesophagus, adherent, top dose 1.28 µM)",0.638,188
"ESO51 (oesophagus, semi-adherent, top dose 1.28 µM)",0.836,> 1280
"ESS-1 (endometrium, adherent, top dose 1.28 µM)",0.909,> 1280
"ETK-1 (biliary tract, adherent, top dose 1.28 µM)",0.863,> 1280
"EVSA-T (breast, adherent, top dose 1.28 µM)",0.84,703
"EW-1 (Ewing sarcoma, semi-adherent, top dose 1.28 µM)",0.435,53.9
"EW-3 (Ewing sarcoma, adherent, top dose 1.28 µM)",0.531,98.4
"EW-7 (Ewing sarcoma, semi-adherent, top dose 1.28 µM)",0.593,139
"EW-11 (Ewing sarcoma, adherent, top dose 1.28 µM)",0.574,136
"EW-13 (Ewing sarcoma, suspension, top dose 1.28 µM)",0.839,1020
"EW-16 (Ewing sarcoma, adherent, top dose 1.28 µM)",0.678,258
"EW-18 (Ewing sarcoma, suspension, top dose 1.28 µM)",0.459,61.2
"EW-24 (Ewing sarcoma, semi-adherent, top dose 1.28 µM)",0.977,> 1280
"EoL-1-cell (haematopoietic neoplasm, suspension, top dose 1.28 µM)",0.691,255
"FADU (head and neck, adherent, top dose 1.28 µM)",0.937,> 1280
"FLO-1 (oesophagus, adherent, top dose 1.28 µM)",0.624,204
"FTC-133 (thyroid, adherent, top dose 1.28 µM)",0.983,> 1280
"FU97 (stomach, adherent, top dose 1.28 µM)",0.89,> 1280
"FU-OV-1 (ovary, adherent, top dose 1.28 µM)",0.899,> 1280
